Results reported in the supplement of paper PMC9588766.
Structures can show the parent of a compound that is named as a salt. Whole data set: some 1,900 compounds, median “cell viability of compound + 1 nM pemigatinib relative to pemigatinib-only (DMSO) wells” near 0.95, cut for the lowest 2% near 0.22. The list shows a part of the results.

The molecules below were run on PDC-DUC18828 (assay: cell viability of compound + 1 nM pemigatinib relative to pemigatinib-only (DMSO) wells (fraction); PDC-DUC18828 is a patient-derived cholangiocarcinoma cell line; higher = less growth inhibition). Conditions: first compound 1 µM; pemigatinib concentration 1 nM; 72 h.
Description: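 Selleck Bioactive library screen in the patient-derived FGFR2 fusion-positive ICC cell line PDC-DUC18828 (500 cells/well). Each compound was tested at 1 uM with 1 nM pemigatinib, in triplicate, for 72 h. Viability was read by CellTiter-Glo and normalised to plate DMSO controls. Value is the paper's averaged normalised viability.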

Row | SMILES | cell viability
1 | Nc1nccs1 [Aminothiazole] + CCN1C(=O)N(c2c(F)c(OC)cc(OC)c2F)Cc2cnc3[nH]c(CN4CCOCC4)cc3c21 [pemigatinib] | 0.985
2 | Cn1c(=O)c2c(ncn2CC(O)CO)n(C)c1=O (stereo unspecified) [Dyphylline] + CCN1C(=O)N(c2c(F)c(OC)cc(OC)c2F)Cc2cnc3[nH]c(CN4CCOCC4)cc3c21 [pemigatinib] | 0.996
3 | CCCc1nc(C(C)(C)O)c(C(=O)OCc2oc(=O)oc2C)n1Cc1ccc(-c2ccccc2-c2nnn[nH]2)cc1 [Olmesartan Medoxomil] + CCN1C(=O)N(c2c(F)c(OC)cc(OC)c2F)Cc2cnc3[nH]c(CN4CCOCC4)cc3c21 [pemigatinib] | 0.997
4 | NCc1c[nH]c(=S)n1[C@H]1CCc2c(F)cc(F)cc2C1 [Nepicastat (SYN-117) HCl] + CCN1C(=O)N(c2c(F)c(OC)cc(OC)c2F)Cc2cnc3[nH]c(CN4CCOCC4)cc3c21 [pemigatinib] | 1.01
5 | CCCCCCCCCCCCCCCC[N+](C)(C)C [Cetrimonium Bromide (CTAB)] + CCN1C(=O)N(c2c(F)c(OC)cc(OC)c2F)Cc2cnc3[nH]c(CN4CCOCC4)cc3c21 [pemigatinib] | 0.93
6 | O=C(NCc1ccc(Oc2ccccc2)cc1)c1nc(-c2cc(Br)c(O)c(Br)c2)no1 + CCN1C(=O)N(c2c(F)c(OC)cc(OC)c2F)Cc2cnc3[nH]c(CN4CCOCC4)cc3c21 [pemigatinib] | 0.968
7 | Cc1c(Cn2c(C)nc3c(C(=O)O)cc(N4CCOCC4)cc32)cccc1C(F)(F)F + CCN1C(=O)N(c2c(F)c(OC)cc(OC)c2F)Cc2cnc3[nH]c(CN4CCOCC4)cc3c21 [pemigatinib] | 0.85
8 | S=c1nc[nH]c2nc[nH]c12 [6-Mercaptopurine (6-MP) Monohydrate] + CCN1C(=O)N(c2c(F)c(OC)cc(OC)c2F)Cc2cnc3[nH]c(CN4CCOCC4)cc3c21 [pemigatinib] | 0.893
9 | CC(C)N(CCC(=O)c1ccc2ccccc2c1)Cc1ccccc1 + CCN1C(=O)N(c2c(F)c(OC)cc(OC)c2F)Cc2cnc3[nH]c(CN4CCOCC4)cc3c21 [pemigatinib] | 1.01
10 | CC(C)(C)C#Cc1cc(N(C(=O)[C@H]2CC[C@H](C)CC2)[C@H]2CC[C@H](O)CC2)c(C(=O)O)s1 [VX-222 (VCH-222, Lomibuvir)] + CCN1C(=O)N(c2c(F)c(OC)cc(OC)c2F)Cc2cnc3[nH]c(CN4CCOCC4)cc3c21 [pemigatinib] | 0.987
11 | CCOC(=O)c1ccc(C#Cc2ccc3c(c2)C(C)(C)CCS3)nc1 [Tazarotene] + CCN1C(=O)N(c2c(F)c(OC)cc(OC)c2F)Cc2cnc3[nH]c(CN4CCOCC4)cc3c21 [pemigatinib] | 0.991
12 | CCC(C)(C)c1ccc(CC(C)CN2C[C@@H](C)O[C@@H](C)C2)cc1 (stereo partly specified) [Amorolfine HCl] + CCN1C(=O)N(c2c(F)c(OC)cc(OC)c2F)Cc2cnc3[nH]c(CN4CCOCC4)cc3c21 [pemigatinib] | 0.942
13 | COc1ccc(-c2cc3c(C)nc(N)nc3n([C@H]3CC[C@H](OCCO)CC3)c2=O)cn1 + CCN1C(=O)N(c2c(F)c(OC)cc(OC)c2F)Cc2cnc3[nH]c(CN4CCOCC4)cc3c21 [pemigatinib] | 0.16
14 | COc1ccc(/C=C/C(=O)C2(C(=O)/C=C/c3ccc(OC)c(OC)c3)CCCCC2)cc1OC + CCN1C(=O)N(c2c(F)c(OC)cc(OC)c2F)Cc2cnc3[nH]c(CN4CCOCC4)cc3c21 [pemigatinib] | 0.852
15 | Cn1c(=O)c(F)c(Nc2ccc(I)cc2F)c2c(=O)n(C[C@@H](O)CO)cnc21 + CCN1C(=O)N(c2c(F)c(OC)cc(OC)c2F)Cc2cnc3[nH]c(CN4CCOCC4)cc3c21 [pemigatinib] | 0.527
16 | CCN1CCC[C@H]1CNC(=O)c1cc(S(N)(=O)=O)ccc1OC [Levosulpiride] + CCN1C(=O)N(c2c(F)c(OC)cc(OC)c2F)Cc2cnc3[nH]c(CN4CCOCC4)cc3c21 [pemigatinib] | 1.03
17 | Nc1ccc(S(N)(=O)=O)cc1 [Sulfanilamide] + CCN1C(=O)N(c2c(F)c(OC)cc(OC)c2F)Cc2cnc3[nH]c(CN4CCOCC4)cc3c21 [pemigatinib] | 0.974
18 | CCOc1nc2cccc(C(=O)OC(C)OC(=O)OC3CCCCC3)c2n1Cc1ccc(-c2ccccc2-c2nn[nH]n2)cc1 (stereo unspecified) [Candesartan Cilexetil] + CCN1C(=O)N(c2c(F)c(OC)cc(OC)c2F)Cc2cnc3[nH]c(CN4CCOCC4)cc3c21 [pemigatinib] | 0.991

Row | SMILES | cell viability
19 | CCCNS(=O)(=O)Nc1ncnc(OCCOc2ncc(Br)cn2)c1-c1ccc(Br)cc1 [Macitentan] + CCN1C(=O)N(c2c(F)c(OC)cc(OC)c2F)Cc2cnc3[nH]c(CN4CCOCC4)cc3c21 [pemigatinib] | 0.939
20 | COc1cc2c(NC3CCN(CC4CCCCC4)CC3)nc(N3CCCN(C(C)C)CC3)nc2cc1OCCCN1CCCCC1 + CCN1C(=O)N(c2c(F)c(OC)cc(OC)c2F)Cc2cnc3[nH]c(CN4CCOCC4)cc3c21 [pemigatinib] | 0.955
21 | COc1ccc(-c2ccc3cc(C(=O)O)ccc3c2)cc1C12CC3CC(CC(C3)C1)C2 [Adapalene] + CCN1C(=O)N(c2c(F)c(OC)cc(OC)c2F)Cc2cnc3[nH]c(CN4CCOCC4)cc3c21 [pemigatinib] | 0.999
22 | Cc1cccc(N(C)C(=S)Oc2ccc3ccccc3c2)c1 [Tolnaftate] + CCN1C(=O)N(c2c(F)c(OC)cc(OC)c2F)Cc2cnc3[nH]c(CN4CCOCC4)cc3c21 [pemigatinib] | 0.997
23 | C=CCNC1=C2C[C@@H](C)C[C@H](OC)[C@H](O)[C@@H](C)/C=C(\C)[C@H](OC(N)=O)[C@@H](OC)/C=C\C=C(/C)C(=O)NC(=CC1=O)C2=O [17-AAG (Tanespimycin)] + CCN1C(=O)N(c2c(F)c(OC)cc(OC)c2F)Cc2cnc3[nH]c(CN4CCOCC4)cc3c21 [pemigatinib] | 0.309
24 | CN1CCN(c2ccc3nc(-c4c(N)c5c(F)cccc5[nH]c4=O)[nH]c3c2)CC1 [Dovitinib (TKI258) Lactate] + CCN1C(=O)N(c2c(F)c(OC)cc(OC)c2F)Cc2cnc3[nH]c(CN4CCOCC4)cc3c21 [pemigatinib] | 0.789
25 | CN1CCN(c2ccc3nc(-c4c(N)c5c(F)cccc5[nH]c4=O)[nH]c3c2)CC1 [Dovitinib (TKI-258, CHIR-258)] + CCN1C(=O)N(c2c(F)c(OC)cc(OC)c2F)Cc2cnc3[nH]c(CN4CCOCC4)cc3c21 [pemigatinib] | 1.01
26 | O=c1[nH]c(=O)n([C@H]2C[C@H](O)[C@@H](CO)O2)cc1I [Idoxuridine] + CCN1C(=O)N(c2c(F)c(OC)cc(OC)c2F)Cc2cnc3[nH]c(CN4CCOCC4)cc3c21 [pemigatinib] | 0.943
27 | CCCCc1oc2ccccc2c1C(=O)c1cc(I)c(OCCN(CC)CC)c(I)c1 [Amiodarone HCl] + CCN1C(=O)N(c2c(F)c(OC)cc(OC)c2F)Cc2cnc3[nH]c(CN4CCOCC4)cc3c21 [pemigatinib] | 0.955
28 | O=C(O)c1cccnc1 [Nicotinic Acid] + CCN1C(=O)N(c2c(F)c(OC)cc(OC)c2F)Cc2cnc3[nH]c(CN4CCOCC4)cc3c21 [pemigatinib] | 0.997
29 | O=C(O)CCCN1CCC(O[C@@H](c2ccc(Cl)cc2)c2ccccn2)CC1 [Bepotastine Besilate] + CCN1C(=O)N(c2c(F)c(OC)cc(OC)c2F)Cc2cnc3[nH]c(CN4CCOCC4)cc3c21 [pemigatinib] | 0.913
30 | Cc1ccc(S(=O)(=O)OCC(=O)Nc2ccc(C(=O)O)c(O)c2)cc1 + CCN1C(=O)N(c2c(F)c(OC)cc(OC)c2F)Cc2cnc3[nH]c(CN4CCOCC4)cc3c21 [pemigatinib] | 0.974
31 | C[C@H]1C[C@H]2[C@@H]3CCC4=CC(=O)C=C[C@]4(C)[C@H]3C(=O)C[C@]2(C)[C@@]1(O)C(=O)CO [Meprednisone] + CCN1C(=O)N(c2c(F)c(OC)cc(OC)c2F)Cc2cnc3[nH]c(CN4CCOCC4)cc3c21 [pemigatinib] | 0.953
32 | CC1(C)C=C(CN2C/C(=C\c3ccc(F)cc3)C(=O)/C(=C/c3ccc(F)cc3)C2)C(C)(C)N1O + CCN1C(=O)N(c2c(F)c(OC)cc(OC)c2F)Cc2cnc3[nH]c(CN4CCOCC4)cc3c21 [pemigatinib] | 0.956
33 | NNC(=O)c1ccncc1 [Isoniazid] + CCN1C(=O)N(c2c(F)c(OC)cc(OC)c2F)Cc2cnc3[nH]c(CN4CCOCC4)cc3c21 [pemigatinib] | 0.983
34 | CO[C@H]1C[C@@H]2CC[C@@H](C)[C@@](O)(O2)C(=O)C(=O)N2CCCC[C@H]2C(=O)O[C@H]([C@H](C)C[C@@H]2CC[C@@H](OC(=O)C(C)(CO)CO)[C@H](OC)C2)CC(=O)[C@H](C)/C=C(\C)[C@@H](O)[C@@H](OC)C(=O)[C@H](C)C[C@H](C)/C=C/C=C/C=C/1C + CCN1C(=O)N(c2c(F)c(OC)cc(OC)c2F)Cc2cnc3[nH]c(CN4CCOCC4)cc3c21 [pemigatinib] | 0.571
35 | CCC[C@@H]1C[C@@H](C(=O)N[C@@H]([C@H]2O[C@H](SC)[C@H](O)[C@@H](O)[C@H]2O)[C@@H](C)O)N(C)C1 [Lincomycin HCl] + CCN1C(=O)N(c2c(F)c(OC)cc(OC)c2F)Cc2cnc3[nH]c(CN4CCOCC4)cc3c21 [pemigatinib] | 0.99
36 | N#Cc1c(Oc2ccc(F)c(NC(=O)Cc3cccc(C(F)(F)F)c3)c2)ccc2nc(NC(=O)C3CC3)sc12 + CCN1C(=O)N(c2c(F)c(OC)cc(OC)c2F)Cc2cnc3[nH]c(CN4CCOCC4)cc3c21 [pemigatinib] | 0.938
